The supplement of paper PMC3334620
Over roughly 33,000 sequences, “E-score (-0.5 to 0.5)” has its median near -0.017; the highest 2% begin near 0.3. Some of the results follow.

target: T1, Sut1 (UniProt P53032); experiment: PBM E-score (8-mer binding enrichment) (E-score (-0.5 to 0.5)); higher = stronger / more preferred TF binding; most listed sequences are background and not binding sites; conditions: protein concentration: 200 nM; construct: GST-full length
T1 sequence: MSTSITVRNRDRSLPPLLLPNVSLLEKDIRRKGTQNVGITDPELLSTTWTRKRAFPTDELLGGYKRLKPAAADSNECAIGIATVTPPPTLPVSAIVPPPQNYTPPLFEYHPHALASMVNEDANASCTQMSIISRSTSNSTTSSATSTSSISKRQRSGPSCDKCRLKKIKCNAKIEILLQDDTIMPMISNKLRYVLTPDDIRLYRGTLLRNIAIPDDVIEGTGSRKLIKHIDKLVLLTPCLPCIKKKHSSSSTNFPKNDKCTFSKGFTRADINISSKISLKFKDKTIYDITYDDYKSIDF
Method in brief: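 Universal all-10-mer Agilent arrays, fresh or stripped once, were converted to double-stranded form by primer extension. GST-tagged yeast transcription factors from PURExpress in vitro transcription/translation, full-length or DNA-binding domain only, were applied at about 100-200 nM and detected with fluorescent anti-GST. After masliner normalisation, the Universal PBM Analysis Suite scored each ungapped eight-base word together with its reverse complement by E-score.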

Sequence | PBM E-score
CGTCTGAG | 0.0162
CGATAAGA | 0.169
ATAATTGC | 0.106
CAACGTAA | -0.122
AGAGTTGG | 0.0456
GGTGGCAA | -0.167
CATGTCTC | -0.0334
CAAGGTAC | -0.114
CGTTCATC | 0.0239
ATACGTAC | 0.0236
AAGAAGTG | -0.0202
ATTACAGA | 0.139
AGGGGACA | -0.229
ATTGTAGG | 0.193
CCCTGGAG | -0.353
CCAAATTC | -0.0238
CCCATAGC | -0.202
ATGACCCA | -0.0652
CTATATTA | 0.276
CCTACCTC | -0.0462
CCCCCGTA | -0.292
GTCGGGAA | -0.169
CGGGCAAG | -0.114
TACTTCAA | 0.261
CTACTGAA | -0.00485

Sequence | PBM E-score
CCATATTA | 0.0603
GGCCTCTA | -0.274
TCCATGGA | 0.0431
GAGATAGA | 0.0347
ATCAAGTG | -0.0877
AAATGCAC | 0.0769
TATGCCCA | -0.107
TAGTGTAA | 0.169
CCCATGTA | 0.00137
CGCGAGAC | -0.0976
AGGCATGC | 0.0551
AAACCCGA | 0.198
AAGGAAGA | 0.0224
ACCTGCTG | -0.0362
AACTTCAG | -0.0466
AGGAGTTC | 0.0585
CGCAAACC | -0.0996
GTGATTGA | 0.186
GGTTGAAA | 0.133
AAGTGTAC | -0.164
CCTCTAAG | -0.212
CTGGCCTC | -0.0756
GGGCGTAA | -0.148
ACTCGACT | -0.0903
GACTTCTA | -0.0229

Sequence | PBM E-score
AGGCAGAC | -0.224
AGTGAAAT | 0.0708
CCTAAGTC | -0.156
CCTGAACA | -0.158
GAGCCCAC | -0.234
ACGGTGGA | 0.0642
AATCTCCA | 0.0699
CAAAGTAG | -0.0204
CGGGGGAC | -0.103
ACTATAGG | -0.172
CCCTGAGC | -0.148
AGCTTATA | 0.0992
ACTTCACC | 0.0672
ACCATCAG | -0.188
CATTGGAA | 0.0951
GGCGATAC | -0.0854
TCGCAAAA | 0.0928
TCGCTCAA | 0.0956
TCGCGACA | -0.0571
AAGCATGA | 0.106
CTTACCGA | 0.123
CCAGGGGA | -0.196
CTGGGATA | 0.0289
AATGATGA | 0.12
TCGTTTAA | 0.168

Sequence | PBM E-score
AGAATTTA | 0.202
AGCCACCA | -0.203
ATATATAG | 0.329
TCTAATAA | 0.173
ACGTATGC | -0.0391
ATTGAGGA | 0.0322
AAGGGTGG | -0.249
GTTCTTTA | 0.252
ACACAGTG | 0.0181
TAAGAACA | 0.221
GATCAACC | 0.0228
AGCAACGA | -0.153
ACCCTGAA | -0.206
ATTCATGC | -0.0101
GTTCGCTA | -0.0747
GAGCAGGA | 0.0159
GGGGCACA | -0.346
GGCAAGAA | -0.0169
GATACGCA | -0.141
ATAGGGAC | -0.138
AAAGCCTG | -0.12
GCGTTGCA | 0.0322
TAGGCCTA | -0.182
GCCTCGAA | 0.115
ACTGGAGG | -0.0479

Sequence | PBM E-score
AGATAGTG | 0.06
GCCGCGCC | -0.197
GCTACCAA | 0.0131
ACTCTGGA | -0.0358
CTGAATTC | -0.102
CCTAGAAG | -0.162
ATGTTCCA | -0.0194
AGGCTTCA | -0.131
GCCAAGCC | -0.0191
CCACCACG | -0.0414
AACCTCAC | -0.0998
CCAGTCTC | -0.102
AATGTGAA | 0.246
ACGGATTA | 0.0513
TCGTACCA | -0.0419
ACTGCGCT | -0.247
ATATCATC | 0.18
CTAAACCA | 0.00733
AGCTAACT | 0.0552
ACAGTATC | 0.0445
CAAGATTC | 0.235
CTGCTTGA | -0.153
ACGCTTGG | -0.249
ATATATGC | 0.0624
AGATAGAC | -0.144

Sequence | PBM E-score
GAATCAGA | 0.0352
CGCGCATC | -0.0907
ACGCAGAT | 0.118
CTCCTTCC | -0.22
ATCTGGGA | -0.168
CAAGGGCG | -0.18
GCTATGGA | 0.0633
AGGGAACT | -0.0607
GACGGACC | 0.162
ATGAATAA | 0.146
AGTCGGAA | 0.243
TCCAGCAA | -0.153
GGGTGACA | -0.336
AGCAGAAT | -0.0512
CGGTTTAG | -0.0675
AATGATTG | 0.164
AGGTTCGA | 0.0769
ACAAAGCC | 0.0373
TAAACACA | 0.128
AGGATCCG | -0.201
ATGTCAAC | 0.102
CCTATTCC | 0.0467
GCTCTAAA | -0.0761
ATAAAAGA | 0.0494
GCGTCGGA | 0.229

Sequence | PBM E-score
AGATCGGG | 0.0511
AATGGTGG | -0.119
ACTGTCGG | -0.215
AATGAAAA | 0.178
ATCACGTC | -0.154
AGACTGTA | -0.0592
AGGTTATC | 0.0484
CCGTCCAC | 0.0551
TCCTGAAA | -0.0671
GTGGCGCA | -0.22
CTACGATA | 0.0794
AAAAATGA | 0.0571
CAACAAGG | -0.00711
CTGTGCAC | -0.277
AATGGGCA | 0.0236
CAACTATC | -0.146
GCCACAGA | -0.172
CGAAACCG | -0.00738
GGTGGCAC | -0.235
CTCCATCA | -0.0323
GCCGTTAC | -0.0101
ATAAGGAG | 0.0629
